Hit rate of the full screen: of about 91,000 compounds, about 130 (0.14%) were called active. Inconclusive results, whose numbers are uncertain, are shown with a selection of clear calls. Calls follow the shape of the dose curve; as a rule, active = well fitted inhibition curve with a large enough effect; inconclusive = small, poorly fitted or top-dose-only effect; inactive = flat fitted curve, though single readings scatter. Potencies of inconclusive entries are doubtful fits and often do not repeat.
These compounds were tested on Uracil-DNA glycosylase (assay: Primary qHTS assay for inhibitors of Activation Induced Cytidine Deaminase (AID): UDG Counterscreen signal). Conditions: FRET deamination/UDG coupled assay, UDG read, 4 h; activity change, negative = inhibition: at 115 µM (top of the series).
% is scaled to controls: 0 for no effect and ±100 for the full control effect; potency is read from the fitted curve at half-maximal effect; tags tell the direction and shape of the fitted curve.
Also: nearly all actives have a fitted effect of over 65% in size.

Row | SMILES | activity change, negative = inhibition | Potency
1 | Cc1ccc(-c2cc(C(=O)Oc3cccc(Br)c3)no2)cc1 | inactive: 1.71% | 
2 | Fc1ccc(-c2noc3ncnc(NCC4CCN(Cc5ccc(Cl)cc5)CC4)c23)cc1 |  | inconclusive: 89.1 µM [inhibitor, single point]
3 | Cc1cc(C)cc(NC(=O)Cn2nnc(-c3nc(-c4ccncc4)no3)c2N)c1 |  | inconclusive: 35.5 µM [inhibitor, partial curve, poor fit]
4 | CCc1ccc(NC(=O)Cn2c(=O)n(Cc3ccco3)c(=O)c3cccnc32)cc1 |  | inconclusive: 100 µM [inhibitor, partial curve, poor fit]
5 | O=C(CC12CC3CC(CC(C3)C1)C2)Nc1ccc(-c2nc3ncccc3o2)cc1 | inactive: 6.97% | 
6 | CCN(CC)C(=O)c1cc(-c2ccc(Cl)cc2)on1 |  | inconclusive: 89.1 µM [inhibitor, single point]
7 | CN(C)c1ccc(Nc2nc3ccccc3nc2NS(=O)(=O)c2cccs2)cc1 |  | inconclusive: 89.1 µM [inhibitor, single point]
8 | Cc1ccc(CNC(=O)CN(c2ccc(C)cc2)S(=O)(=O)c2c(C)nn(C)c2C)cc1 | inactive: 0.296% | 
9 | CCCCn1c(C(C)NC(=O)c2ccccc2)nc2ccccc21 (centres undefined) |  | inconclusive: 79.4 µM [inhibitor, partial curve, poor fit]
10 | COc1ccc(-c2csc(N3N=C(C)CC3c3ccc(OC)c(OC)c3)n2)cc1OC (centres undefined) |  | inconclusive: 50.1 µM [inhibitor, partial curve]
11 | COc1ccc(C2=C(Nc3ccc(C)c(C)c3)c3ccccc3C2=O)cc1 |  | inconclusive: 89.1 µM [inhibitor, partial curve, poor fit]
12 | O=C(COc1ccccc1[N+](=O)[O-])Nc1ccc(-c2nc3ccccc3s2)cc1 |  | inconclusive: 100 µM [inhibitor, single point]
13 | O=S(=O)(c1ccccc1)c1nc(-c2cccs2)oc1SCc1ccc(F)cc1 |  | inconclusive: 89.1 µM [inhibitor, partial curve, poor fit]
14 | O=S(=O)(NCC(Nc1ccc(Cl)cc1)c1ccccc1)c1ccccc1 (centres undefined) | inactive: 9.28% | 
15 | CC1CCN(c2oc(/C=C/c3ccc(F)cc3)nc2C#N)CC1 |  | inconclusive: 79.4 µM [inhibitor, partial curve, poor fit]
16 | Cc1cc(/C=C/C(=O)c2cccs2)cc(C)c1O | inactive: 9.76% | 
17 | CCc1c(C)sc2c1CCN(C(=O)Nc1ccc(F)c(Cl)c1)C2c1ccc(F)cc1 (centres undefined) |  | inconclusive: 39.8 µM [inhibitor, partial curve, poor fit]
18 | Cc1ccc(-c2noc(CN(C(=O)COc3cc(C)cc(C)c3C)C(C)C)n2)cc1 | inactive: -19.2% | 
19 | Cc1nn(C(C)(C)C)c(OC(=O)c2c(F)cccc2F)c1Sc1ccccc1 |  | inconclusive: 89.1 µM [inhibitor, partial curve, poor fit]
20 | Cc1ccc(CNC(=O)C2CCCN(Cc3nc(-c4cccc(C)c4)oc3C)C2)cc1 (centres undefined) |  | inconclusive: 89.1 µM [inhibitor, partial curve, poor fit]
21 | CCN(CC)CCNC(=O)c1ccc2c(=O)n3nc(Nc4ccccc4)sc3nc2c1 | inactive: -8.63% | 
22 | CCOC(=O)c1sc(Nc2cc(C)ccc2C)nc1C(F)(F)F | inactive: 3.28% | 
23 | Cc1cc(C)c(NC(=O)Cc2ccc(-n3c(C)nc4cccnc43)cc2)c(C)c1 |  | inconclusive: 89.1 µM [inhibitor, single point]

Row | SMILES | activity change, negative = inhibition | Potency
24 | Cc1ccc(OC(=O)CSc2nnc(-c3cccs3)o2)c(C)c1 |  | inconclusive: 89.1 µM [inhibitor, single point]
25 | COc1ccc(CNC(=O)c2ccc(-c3nc(CS(=O)c4ccc(C)cc4)c(C)o3)cc2)cc1 (centres undefined) |  | active: 89.1 µM
26 | Cc1cccc(NC(=O)CSc2nc(=O)n(Cc3cccnc3)c3c2CCC3)c1 |  | inconclusive: 89.1 µM [inhibitor, partial curve, poor fit]
27 | Cc1ccc(NC(=O)c2nc(-c3ccncc3)no2)c(Cl)c1 |  | inconclusive: 89.1 µM [inhibitor, single point]
28 | CCOc1ccc(NC(=O)Cn2c(=O)oc3cc(S(=O)(=O)N4CCC(C)CC4)ccc32)cc1 |  | inconclusive: 100 µM [inhibitor, single point]
29 | COc1ccc(-c2noc(CSc3nnc(-c4ccncc4)n3-c3ccc(C)c(C)c3)n2)cc1 |  | inconclusive: 44.7 µM [inhibitor, partial curve, poor fit]
30 | Cc1ccc(C)c(Nc2nnc(-c3ccc(C)c(S(=O)(=O)N4CCCCC4)c3)c3ccccc23)c1 |  | inconclusive: 89.1 µM [inhibitor, partial curve, poor fit]
31 | COc1cc2ncc3c(-c4ccccc4)nn(-c4ccc(C)cc4)c3c2cc1OC |  | inconclusive: 89.1 µM [inhibitor, partial curve, poor fit]
32 | Cc1ccc(O)c(N/C=C/C(=O)C(C)(C)C)c1 | inactive: 4.39% | 
33 | CC(C)(C)C1CCc2nc(SCC(N)=O)c(C#N)c(C(F)(F)F)c2C1 (centres undefined) |  | active: 79.4 µM
34 | N#C/C(=C\c1ccc(-c2ccc(C(=O)O)cc2)o1)c1nc2ccccc2[nH]1 | inactive: -14.3% | 
35 | N#Cc1ccccc1-n1ccnc1 | inactive: 3.71% | 
36 | Cc1ccc(-n2nc3c(N4CCCC(C(=O)NCCN(C)C)C4)nnc(C)c3c2C)cc1 (centres undefined) |  | inconclusive: 79.4 µM [inhibitor, single point]
37 | Cc1ccc(C)c(Cn2c(=O)cc(C)c3c(C)nn(C)c32)c1 |  | inconclusive: 89.1 µM [inhibitor, single point]
38 | Cc1ccc(-n2ncc3c(N4CCN(C)CC4)ncnc32)cc1C |  | inconclusive: 89.1 µM [inhibitor, single point]
39 | Cc1cccc(NC(=O)Cc2csc(COc3cccc(C)c3)n2)c1 | inactive: -12.9% | 
40 | Cc1ccc(Cl)cc1NS(=O)(=O)c1cc2c3c(c1)CC(=O)N3CCC2 |  | inconclusive: 89.1 µM [inhibitor, partial curve, poor fit]
41 | CNCc1ccc(-c2ccccc2)o1 | inactive: -7.84% | 
42 | Cc1ccc2nc(Cl)c3cc(C(=O)NC4CCCCCC4)sc3c2c1 |  | inconclusive: 89.1 µM [inhibitor, single point]
43 | CCCCCCCCCOc1cccc(CNc2cccc3ccccc23)c1 | inactive: -26.3% | 
44 | CC1=C(C(=O)OC(C)(C)C)C(c2ccc(Cl)cc2)NC(=O)N1 (centres undefined) | inactive: 0.665% | 
45 | O=C(N/N=C/c1ccccc1)C1CC1c1ccccc1 (centres undefined) | inactive: 1.7% | 
46 | Cc1ccccc1OC(=O)C(c1ccccc1)c1ccccc1 | inactive: -9.06% | 

Row | SMILES | activity change, negative = inhibition | Potency
47 | CCOc1cc(OCC)cc(C(=O)Nc2ccc(Br)c(C)n2)c1 |  | inconclusive: 89.1 µM [inhibitor, single point]
48 | Cc1c(Cl)cccc1NC(=O)CSc1nc(=O)n(Cc2cccnc2)c2c1CCC2 |  | inconclusive: 89.1 µM [inhibitor, single point]
49 | COc1ccc(C)cc1NC(=O)Cn1c(=O)oc2cc(S(=O)(=O)NCc3ccccc3)ccc21 | inactive: 25.6% | 
50 | CCCS(=O)(=O)N1CC(=O)N(c2ccc(Cl)cc2)C(C)(C(=O)NC2CCCC2)C1 (centres undefined) |  | inconclusive: 89.1 µM [inhibitor, single point]
51 | O=C(NCc1ccc2c(c1)CCN2C(=O)c1ccccc1)c1ccco1 |  | inconclusive: 89.1 µM [inhibitor, single point]
52 | Cc1ccc(C(=O)NC(NC(=O)c2ccc(Cl)cc2)C(Cl)Cl)cc1 (centres undefined) | inactive: 4.97% | 
53 | CSc1ncc(Cl)c(C(=O)Nc2c(C(=O)c3ccc(Cl)cc3)oc3ccccc23)n1 |  | inconclusive: 89.1 µM [inhibitor, single point]
54 | CC(C)C(NS(C)(=O)=O)C(=O)Nc1cccc(Cl)c1 (centres undefined) | inactive: 3.22% | 
55 | COC(=O)c1scc(-c2ccc(C)cc2)c1S(=O)(=O)Nc1cc(C)c(Cl)cc1OC |  | inconclusive: 100 µM [inhibitor, single point]
56 | Cc1cccc(N2CCN(C(=O)CCS(=O)(=O)c3ccc4c(c3)CC(=O)N4C)CC2C)c1 (centres undefined) |  | active: 79.4 µM
57 | CCN(CC)S(=O)(=O)c1ccc(NC(=O)Cc2cn3ccsc3n2)cc1 |  | inconclusive: 89.1 µM [inhibitor, single point]
58 | COc1ccc(-c2csc(-c3c(N)c(C(=O)c4ccc(OC)c(OC)c4)n4ccccc34)n2)cc1 |  | inconclusive: 100 µM [inhibitor, single point]
59 | c1ccc(CCNc2nc(Nc3ccccc3)c3nccnc3n2)cc1 | inactive: -4.1% | 
60 | CC(Oc1ccc(C(=O)c2ccccc2)cc1)C(=O)N1CCc2ccccc21 (centres undefined) |  | active: 79.4 µM
61 | NCCS(N)(=O)=O | inactive: 9.46% | 
62 | Cc1ccc(-c2noc(-c3ccc(N4CCCC4)c([N+](=O)[O-])c3)n2)cc1 |  | inconclusive: 89.1 µM [inhibitor, single point]
63 | Cc1ccc(OCCCCn2c(-c3ccc(Cl)cc3)nc3ccccc3c2=O)cc1 |  | inconclusive: 89.1 µM [inhibitor, partial curve, poor fit]
64 | COc1cccc(C(=O)Nc2cccc3cccnc23)c1 |  | inconclusive: 89.1 µM [inhibitor, single point]
65 | CCOc1ccc(C(=O)Nc2ccc3nc(N(CC)CC)cc(C)c3c2)cc1 | inactive: -6.69% | 
66 | O=C(NCCc1ccc(Cl)cc1)C1CC2CCC(C1)C21SCCS1 (centres undefined) | inactive: 3.08% | 
67 | Oc1ccc2ccccc2c1C=Nc1cc(Cl)cc(Cl)c1 |  | inconclusive: 28.2 µM [inhibitor, partial curve]
68 | CCOC(=O)c1c(-c2ccc(C)cc2)csc1NC(=O)c1cc(-c2ccc(OC)cc2)on1 |  | inconclusive: 100 µM [inhibitor, single point]
69 | COc1ccc(C(=O)Nc2nc3c(s2)Cc2c(Br)ccc(OC)c2-3)cc1OC |  | inconclusive: 56.2 µM [inhibitor, partial curve, poor fit]

Reference: PubChem BioAssay AID1347430 (National Center for Advancing Translational Sciences (NCATS), 2020)
